Measured values: PubChem BioAssay AID686979 (National Center for Advancing Translational Sciences (NCATS), 2013)
Where “and” joins values, the source holds several entries; their conditions need not be identical. Identical values can stand only once. Screen size: about 420,000 compounds; about 50,000 (12%) were called active. This list was built around the results that the source calls inconclusive (neither active nor inactive); the mix of calls is not that of the screen. The call rests on the fitted dose curve; in most records, active means well fitted inhibition curve with a large enough effect; inconclusive means small, poorly fitted or top-dose-only effect; inactive means flat fitted curve, though single readings scatter. Potencies of inconclusive entries are doubtful fits and often do not repeat.

Test: qHTS for Inhibitors of human tyrosyl-DNA phosphodiesterase 1 (TDP1): qHTS in cells in presence of CPT; further: nearly all actives have a fitted effect of over 55% in size
Details: chicken DT40 Tdp1-/-;hTDP1 cells + 20 nM CPT, ATP luminescence, 48 h; activity change, negative = growth inhibition: at 46.2 µM (top of the series) unless noted
Summary of the method: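 Chicken DT40 Tdp1-/- cells complemented with human TDP1, 400 cells/well, exposed to compounds plus 20 nM camptothecin for at least 48 h at 37 C; viability read as ATP content by CellTiter-Glo luminescence.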
On the % scale 0 is the no-effect control and ±100 the full control effect; potency means the concentration at half of the fitted maximal effect; tags describe the fitted curve by direction and shape.

Row | SMILES | Potency | activity change, negative = growth inhibition
1 | COc1ccc(CN2C3CCCC2CC(NC(=O)Nc2cccc(C)c2)C3)cc1 (stereo not given) | inconclusive: 29.1 µM [inhibitor, single point] | 
2 | COCCN(C(=O)CCC(=O)Nc1nccs1)C(C(=O)NC(C)(C)C)c1ccc(F)cc1 (stereo not given) |  | inactive: -27.2%
3 | COc1ccc(CCN2CCCn3c2nc2c3c(=O)n(CC(C)C)c(=O)n2C)cc1OC | active: 20.6 µM | 
4 | CCOC(=O)COc1ccccc1C1Nc2ccccc2C(=O)N1c1cccc(Cl)c1 (stereo not given) | inconclusive: 20.6 µM [inhibitor, partial curve, poor fit] | 
5 | C=C[C@](C)(O)CCC1C(=C)CC(O)C2C(C)(C)CCCC12C (stereo not given in full) | inconclusive: 23.1 µM [inhibitor, single point] | 
6 | Cc1ccc2nc(SC(C)C(=O)NC3CCCc4ccccc43)[nH]c2c1 (stereo not given) | inconclusive: 18.4 µM [inhibitor, partial curve] | 
7 | COc1ccc(S(=O)(=O)Nc2ccccn2)cc1C(=O)Nc1ccccc1 |  | inactive: 6.09%
8 | Cc1ccc(C)n1-n1cnc2sc3c(c2c1=O)CCC3 | inconclusive: 29.1 µM [inhibitor, single point] | 
9 | Cc1ccc(OCC(=O)NN2C(=O)c3ccccc3C2=O)cc1 |  | inactive: 1.58%
10 | O=C(NCCc1ccccc1)c1ccc2c(c1)N(Cc1ccccc1F)C(=O)c1ccccc1S2=O (stereo not given) | inconclusive: 29.1 µM [inhibitor, single point] | 
11 | Cc1[nH]n(-c2ccccc2)c(=O)c1CCOC(=O)c1ccc(C(F)(F)F)cc1 |  | inactive: 4.03%
12 | CCN1C2=C(C(=O)CCC2)C(c2ccc(O)c(Br)c2)C2=C1CCCC2=O | inconclusive: 16.4 µM [inhibitor, single point] | 
13 | CC1(C)CC(=O)N(c2cccc(C(F)(F)F)c2)C(=O)C1 | inconclusive: 5.8 µM [inhibitor, full curve, poor fit] | 
14 | O=c1[nH]c(O)c(/C=C2\C=Nc3ccc(Br)cc32)[nH]1 |  | inactive: -1.69%
15 | COc1ccc(C(=O)OCC(=O)c2ccco2)cc1[N+](=O)[O-] |  | inactive: 4%
16 | O=c1c(N2CCc3ccccc3C2)csc2ccccc12 | inconclusive: 25.9 µM [inhibitor, single point] | 
17 | COc1ccccc1NC(=O)c1cc(S(=O)(=O)N2CCCCCC2)ccc1F | inconclusive: 18.4 µM [inhibitor, single point] | 
18 | COc1cc(NC(=O)c2cnc(N)s2)cc(C(=O)Nc2cccc(C(F)(F)F)c2)c1 | inconclusive: 18.4 µM [inhibitor, single point] and inconclusive: 25.9 µM [inhibitor, single point] | 
19 | O=C(C1CCCN(S(=O)(=O)c2ccc(Br)s2)C1)N1CCN(c2ccccc2)CC1 (stereo not given) | active: 18.4 µM | 
20 | Cc1ccc(N(C(=O)CNC(=O)c2ccco2)C(C(=O)NC2CCCC2)c2cccnc2)c(C)c1 (stereo not given) |  | inactive: 7.66%
21 | CC(=O)N1CCN(S(=O)(=O)c2cccc(C(=O)NCCC3=CCCCC3)c2)CC1 | active: 2.91 µM | 
22 | C=CCc1ccccc1OCCn1nnc2ccccc21 | inconclusive: 29.1 µM [inhibitor, single point] | 
23 | Cn1cccc1C(=O)OCC(=O)N1CCN(c2ccccc2)CC1 |  | inactive: -27.9%

Row | SMILES | Potency | activity change, negative = growth inhibition
24 | Cn1nc(C(=O)OCC(=O)Nc2sccc2C(N)=O)c2ccccc2c1=O |  | inactive: -5.82%
25 | CC(=O)C1=NN(c2ccccc2)C(c2cccs2)N1c1ccc(N(C)C)cc1 (stereo not given) | active: 2.24 µM | 
26 | N#Cc1ccccc1NC(=O)C1SC(=Nc2ccccc2)C(C(=O)Nc2ccc(Cl)cc2)=C1N (stereo not given) | active: 16.4 µM | 
27 | C=Cc1ccc(Cn2c(C(=O)O)c(CNCc3ccccc3)c3ccc(C)cc32)cc1 | active: 7.31 µM | 
28 | COc1cccc(NC(=O)C2(C)CCN2C(=O)Cc2ccc(-c3ccccc3)cc2)c1 (stereo not given) | inconclusive: 23.1 µM [inhibitor, single point] | 
29 | CCc1ccc2c(CN3CCC(C(=O)OC)CC3)cc(=O)oc2c1 |  | inactive: -1.17%
30 | COc1cc(NC(=O)c2ccccc2)c(OC)cc1NC(=O)CN1C(=O)NC2(CCCCC2)C1=O | inconclusive: 16.4 µM [inhibitor, single point] | 
31 | CCOC(=O)c1c(Cc2ccc(Cl)cc2)c[nH]c1C | inconclusive: 5.17 µM [inhibitor, full curve, poor fit] | 
32 | CC(C)(C)C(=O)Cn1c(=N)n(Cc2ccccc2)c2ccccc21 | active: 20.6 µM | 
33 | COc1ccc(NC(=O)c2ccccc2NC(=O)CSc2ccc(Cl)cc2)cc1 | inconclusive: 14.6 µM [inhibitor, partial curve] | 
34 | COc1ccc(NC(=O)c2ccc3c(=O)n4nc(Nc5cccc(Cl)c5C)sc4nc3c2)cc1 | active: 2.91 µM | 
35 | O=C(CS(=O)(=O)c1ccc2ccccc2c1)N1CCCCCC1 | inconclusive: 29.1 µM [inhibitor, single point] | 
36 | COc1ccc2nc(C)cc(SCC(=O)OC(C)C)c2c1 | inconclusive: 0.0065 µM [inhibitor, full curve, poor fit] | 
37 | COc1ccc(N(CC(=O)Nc2ccc3c(c2)OCO3)S(=O)(=O)c2ccccc2)c(OC)c1 | active: 20.6 µM | 
38 | CC(=O)N1CCCc2cc(S(=O)(=O)N3CCCC(C(=O)Nc4cc(Cl)ccc4C)C3)ccc21 (stereo not given) | inconclusive: 29.1 µM [inhibitor, single point] | 
39 | Cc1onc(-c2ccccc2Cl)c1C(=O)N1CCc2ccccc2C1 | inconclusive: 13 µM [inhibitor, partial curve] | 
40 | CC1CN(C(=O)CSc2nc(-c3ccc(F)cc3)cs2)CC(C)O1 (stereo not given) | inconclusive: 29.1 µM [inhibitor, single point] | 
41 | Cc1ccc(-c2csc(=Nc3ccc(F)cc3)n2Cc2ccc3c(c2)OCO3)cc1C | active: 18.4 µM | 
42 | CO/N=C/c1ccc(N2CCN(C(=O)c3ccc(F)cc3)CC2)c([N+](=O)[O-])c1 | active: 14.6 µM | 
43 | Cn1c(NCc2ccc(Cl)cc2)nc2ccccc21 | inconclusive: 29.1 µM [inhibitor, single point] | 
44 | Cc1ccc(CSc2nc3ccsc3c(=O)n2Cc2ccccn2)cc1 | inconclusive: 29.1 µM [inhibitor, single point] | 
45 | Cc1cc(C)nc(-n2ncc3c2CC(c2ccc(C(C)C)cc2)CC3=O)n1 (stereo not given) | inconclusive: 29.1 µM [inhibitor, single point] | 
